Experimental data reported in publication PMC4336329 (PLoS ONE, 2015).
Screen size: about 310,000 compounds; about 2,200 (0.71%) showed an effect of 50% or more. The effect is printed as a negative number. The list shows a part of the results.

Each compound was assayed against human ether-à-go-go-related gene (hERG) potassium channel (human, UniProt Q12809) (assay: primary screen, population patch clamp on CHO cells stably expressing hERG).
human ether-à-go-go-related gene (hERG) potassium channel, sequence (Q12809 whole entry, looked up): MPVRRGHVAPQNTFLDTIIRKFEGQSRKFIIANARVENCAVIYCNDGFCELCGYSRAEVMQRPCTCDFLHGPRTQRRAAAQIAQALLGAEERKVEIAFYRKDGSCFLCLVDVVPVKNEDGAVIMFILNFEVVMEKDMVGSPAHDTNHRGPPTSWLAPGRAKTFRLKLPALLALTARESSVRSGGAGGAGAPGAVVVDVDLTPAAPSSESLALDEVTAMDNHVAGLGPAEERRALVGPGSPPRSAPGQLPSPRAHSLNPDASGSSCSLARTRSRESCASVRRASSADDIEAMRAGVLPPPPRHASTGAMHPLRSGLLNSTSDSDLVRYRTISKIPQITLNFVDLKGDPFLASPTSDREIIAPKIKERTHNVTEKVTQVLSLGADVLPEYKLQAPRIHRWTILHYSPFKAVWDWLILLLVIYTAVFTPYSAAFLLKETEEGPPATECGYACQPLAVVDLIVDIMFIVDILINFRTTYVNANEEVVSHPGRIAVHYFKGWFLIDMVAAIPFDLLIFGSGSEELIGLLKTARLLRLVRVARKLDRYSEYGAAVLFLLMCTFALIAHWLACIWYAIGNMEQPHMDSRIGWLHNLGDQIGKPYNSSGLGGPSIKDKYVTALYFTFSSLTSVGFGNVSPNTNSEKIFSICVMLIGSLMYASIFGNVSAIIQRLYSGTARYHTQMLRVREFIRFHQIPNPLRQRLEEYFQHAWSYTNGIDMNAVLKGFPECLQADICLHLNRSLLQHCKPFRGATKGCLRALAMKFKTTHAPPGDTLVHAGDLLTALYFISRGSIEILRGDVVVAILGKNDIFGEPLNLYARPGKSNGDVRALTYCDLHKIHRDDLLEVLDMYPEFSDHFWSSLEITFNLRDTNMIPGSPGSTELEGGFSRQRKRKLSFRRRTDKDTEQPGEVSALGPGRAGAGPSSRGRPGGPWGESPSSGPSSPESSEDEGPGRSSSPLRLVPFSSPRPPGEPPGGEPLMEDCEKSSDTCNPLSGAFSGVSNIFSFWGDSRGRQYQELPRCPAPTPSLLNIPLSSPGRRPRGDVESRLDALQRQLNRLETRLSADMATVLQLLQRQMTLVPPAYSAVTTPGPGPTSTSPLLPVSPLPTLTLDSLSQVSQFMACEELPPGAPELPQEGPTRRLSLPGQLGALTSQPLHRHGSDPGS

SMILES | hERG current change (%, negative = inhibition) at 1uM [%]
COc1cccc(NC(=O)CSc2nc3c(c(-c4ccco4)c2C#N)CCCC3)c1 | 15.4
Cc1cc(S(=O)(=O)N2CCC3(CC2)OCCO3)c(C)cc1Cl | 8.92
O=C(CN1C(=O)CC(c2ccco2)Sc2ccccc21)Nc1ccccc1F (stereo not shown) | -1.2
O=C(c1ccc2c(c1)OCO2)C1CCCN(Cc2ccccn2)C1 (stereo not shown) | -13
CN(C)CCN(C(=O)c1ccc(N2C(=O)CCC2=O)cc1)c1nc2cc3c(cc2s1)OCCO3.Cl | 8.44
Cc1cc(NC(c2cccnc2)c2ccc3cccnc3c2O)no1 (stereo not shown) | 8.74
Nc1c(C(=O)NCc2ccco2)sc2nc(N3CCOCC3)c3c(c12)CCCC3 | 4.34
CC(=O)c1cccc(NC(=O)c2cc(-c3ccc(F)cc3)on2)c1 | -4.73
Brc1cccc(-c2nnc(-c3ccccc3)o2)c1 | 11.8
O=C(O)c1cccc(Oc2ccccc2[N+](=O)[O-])c1 | 11.9
CCOc1ccc(C(=O)NCC(=O)NCC(c2ccccc2OC)N2CCCC2)cc1 (stereo not shown) | -2.46
COCCCn1c(Cc2csc(Nc3ccccc3)n2)nnc1SCC(N)=O | 16.9
Cc1ccc2[nH]c(=O)c(CN(CCO)C(=O)N(C)C)cc2c1 | 5.65
CCC(C)NC(=O)C1CCC(CNS(=O)(=O)c2ccccc2)CC1 (stereo not shown) | 15.5
CCC(C#CCN1CCOCC1)(CC)OCCC#N | 2.58
CC(=O)c1c(C)[nH]c(C(=O)Nc2ccc(C)c(C)c2)c1C | 18.4
CCN(CC)CCn1c(-c2ccccc2)nc(=S)c2c1CC(C)(C)OC2 | 7.89
O=C(c1sc2ccccc2c1Cl)N1CCN(c2ncccn2)CC1 | 6.43
Cc1cccc(Cn2c(=O)oc3ccc(C)cc32)c1 | 12.2
CCCn1c(N)c(CC)c(=O)[nH]c1=O | 11.1
Cl.O=C1CC(N2CCN(Cc3ccccc3)CC2)C(=O)N1c1ccc2c(c1)OCCO2 (stereo not shown) | 7.3
Cc1noc(NC(=O)c2ccc(Cl)c(Cl)c2)c1Cl | 12.9
Cc1ccc(-n2[nH]c(C)c(C=Nc3ccc(C)cn3)c2=O)cc1 | 7.61

SMILES | hERG current change (%, negative = inhibition) at 1uM [%]
C[N+]1(CCC(C(N)=O)(c2ccccc2)c2ccccc2)CCCCC1.[Br-] | 15.7
O=C(O)c1cc2cc(Cl)cc(Cl)c2oc1=O | 8.8
O=c1c(C=NCc2cccnc2)c(C(F)(F)F)[nH]n1-c1nc2ccccc2s1 | 10.8
O=C(c1ccc2c(c1)OCO2)N(Cc1cccs1)C1(C(=O)NC2CCCCC2)CCCCC1 | 4.07
O=C(CSCc1ccccc1F)NCc1ccccc1 | 13.4
CCN(CC(=O)Nc1ccc(NC(C)=O)cc1)C(=O)/C=C/c1ccc2c(c1)OCO2 | 19.4
O=c1[nH]c(CN(CCO)CCO)nc2c1C1(CCCCC1)Cc1ccccc1-2 | 4.67
C=CCn1c(CCc2ccccc2)nnc1SCC(N)=O | 6.51
COc1cccc(C(=O)OCC(=O)NC(=O)NC2CCCC2)c1O | 13.2
CCCN1CCC[C@@H](c2cccc(O)c2)C1.Cl | -0.0439
CN(C)C1(CNC(=O)Nc2ccccc2)CCCCC1 | 12.3
CCOc1ccc(N2CC(C(=O)Nc3ccncc3)CC2=O)cc1 (stereo not shown) | 6.08
Cc1ccc(C(c2c(C)[nH][nH]c2=O)c2c(C)[nH][nH]c2=O)cc1 | 15.5
CCN(CC(=O)NCc1ccc(Cl)cc1)S(=O)(=O)c1ccc(NC(C)=O)cc1 | -7.15
O=c1c2cccnc2n(-c2ccccc2)n1Cc1c(Cl)cccc1Cl | 4.07
Nc1cc(N)cc(C(=O)OCC(=O)Nc2cc(S(=O)(=O)N3CCCCC3)ccc2Cl)c1 | 13.8
COc1cc2c(cc1OC)C1(Nc3c-2c(C)nn3-c2ccccc2)C(=O)Nc2ccccc21 (stereo not shown) | 4.86
O=C(NN=C(Cc1ccccc1)Cc1ccccc1)c1ccncc1 | 4.05
COc1ccc(C(C(=O)NCC2CCCO2)N(C(=O)Cn2nnc3ccccc32)c2ccccc2C(C)=O)cc1OC (stereo not shown) | -1.08
CC1(C)Cc2c(sc3nn[nH]c(=O)c23)CO1 | 10.6
COc1cc(NC(=O)c2ccco2)c(OC)cc1NC(=O)c1cc(OC)c(OC)c(OC)c1 | 15.3
Fc1ccc(N2CCN(C(=S)NCC3CCCO3)CC2)cc1 (stereo not shown) | 8.3
O=C(Cc1ccc([N+](=O)[O-])cc1)Nc1ccc2c(c1)C(=O)NC2=O | -12.8

SMILES | hERG current change (%, negative = inhibition) at 1uM [%]
CCOC(=O)c1cc(NC(=O)COC)ccc1O | 12.6
COCCn1c(SCC(=O)Nc2cc(Cl)ccc2OC)nc2c(c1=O)SC(C)C2 (stereo not shown) | 7.35
O=C(Oc1ccc(OC(=O)c2ccco2)c(S(=O)(=O)c2ccc(Cl)cc2)c1)c1ccco1 | 5.98
CC(C)C(NC(=O)CN1C(=O)c2ccccc2S1(=O)=O)C(C)C | 1.63
CCOC(=O)c1ccc(NC(=O)N2CCCCC2)cc1 | 8.51
Cc1nnc(NC(=O)c2ccc(S(=O)(=O)N3CCc4ccccc4C3)cc2)o1 | 12.4
O=C(N/N=C/c1ccc(OCc2ccccc2)cc1)c1cc[n+](Cc2ccccc2)cc1.[Cl-] | -2.36
Cc1cc2nc3n(c2cc1C)CC1CC(C(=O)NCc2cccc(Br)c2)N(C)C31 (stereo not shown) | -13
Cc1ccc(-c2nc3ccccc3c(=O)n2Cc2ccccc2)cc1 | -6.52
CCCCC(=O)N/N=C/c1cc([N+](=O)[O-])ccc1N1CCOCC1 | -5.25
O=C(NCCc1cccs1)c1ccc(Cl)cc1 | 8.16
COc1ccc(CN(Cc2ccccn2)C(=O)CN2C(=O)COc3ccccc32)cc1 | 2.74
COC(=O)c1c(-c2ccc(C)cc2)csc1NC(=O)c1c(-c2ccccc2)noc1C | 12.1
Cn1ccnc1/C(=N\NC(=O)c1ccc(O)cc1)c1cccc([N+](=O)[O-])c1 | -2.46
CCC(=NCCc1ccccc1)c1c(O)n(C)c(=O)n(C)c1=O | 6.48
CN1CCN(c2nc3c(c(=O)n(C)c(=O)n3C)n2Cc2ccc(Cl)cc2)CC1 | -5.48
Cc1noc(C(=O)N2CC3(C)CC2CC(C)(C)C3)c1Cl (stereo not shown) | -9.17
Cn1c(SCC(=O)NC(=O)Nc2ccccc2)nnc1-c1ccncc1 | 9.09
NCC(=O)CCC(=O)O | 7.17
COC(=O)C(NC(=O)C(NC(=O)C1CCC(C)CC1)C(C)C)C(C)C (stereo not shown) | 12.3
O=C(/C=C/c1ccccc1)NCC(=O)N/N=C/c1ccco1 | 3.94
COc1ccc(NC(=O)CSc2nccn2Cc2ccco2)cc1OC | 5.8
Clc1ccc(-c2cc(CN3CCCCC3)no2)cc1Cl | 16.3

SMILES | hERG current change (%, negative = inhibition) at 1uM [%]
CNc1ncc(C(=O)C(C)(C)C)s1 | 6.47
CC(C)N(C(=O)COC(=O)c1cncc(Br)c1)C(C)C | 10.4
COC(=O)c1ccc2c(C)c(C(C)(C)O)[nH]c2c1 | 5.9
Cn1c(SCc2nc(-c3ccccc3)no2)nnc1-c1ccco1 | 2.71
COc1ccccc1Oc1ccc(S(=O)(=O)N2CCCCC2)cc1NC(=O)CCNC(C)=O | -3.14
COC(=O)C1CCN(C(=O)COC(=O)CCc2nc3ccccc3c(=O)[nH]2)CC1 | 6.54
COc1ccc(NC(=O)CNc2ccccc2N2CCCC2=O)cc1S(=O)(=O)N1CCOCC1 | 9.33
CCOC(=O)c1[nH]c2ccccc2c1NC(=O)NC(C)C | 11.7
Cc1ccc(S(=O)(=O)N2CCCCC2)cc1C(=O)N1CCCC1 | 11.6
Cc1[nH]c2ccccc2c1C(C#N)(C#N)C1C(=O)c2ccccc2C1=O | 5.22
CC(CN1CCN(c2ccccc2)CC1)c1ccccc1 (stereo not shown) | 5.12
C/C(=N\NC(=O)c1ccc2c(c1)OCO2)c1ccco1 | 14.3
Cn1c(=O)c2cn(Cc3ccc(Cl)cc3)cc2n(C)c1=O | 15.6
CCOC(=O)C(C)n1cnc2c(cnn2-c2ccc(Cl)cc2)c1=O (stereo not shown) | 7.05
CC(CC(=O)N1CCN(C(=O)c2ccccc2)CC1)c1ccccc1 (stereo not shown) | 1.46
CC(C)Cn1c(-c2ccccc2)nc(=S)c2c1CCCC2 | 17.3
Cc1ccc(OCC(=O)OCc2c(C)noc2C)cc1C | -13.7
CCc1cc(=O)[nH]c(-n2[nH]c(-c3ccccc3)cc2=O)n1 | 19.5
CC(=O)c1cc(C#N)c(Oc2ccccc2)nc1C | 15.6
CC(SC(=S)N1CCOCC1)C(=O)O (stereo not shown) | 5.56
CCCN1CCC(=NNc2ccc(S(=O)(=O)N(CC)CC)cc2[N+](=O)[O-])CC1 | 7.7
O=C(NCCC1=CCCCC1)c1ccc(Cl)c(S(=O)(=O)N2CCOCC2)c1 | 0.268
